96 molecules from PubChem BioAssay AID485344 (National Center for Advancing Translational Sciences (NCATS), 2010) can be followed below.

The structures appear in SMILES notation. “And” between values parts separate entries of the source, which are not always exact repeats. Identical values can stand only once. The whole screen tested about 340,000 compounds, of which about 6,900 (2%) were called active. No stated cut-off is given here; in the data, active means inhibition above about 30%; inactive means below that, where a call was filed. Only a part is listed here, and it is no random draw. Entries without a call were filed so in the source.

Chain of UniProt P14416 (P14416 whole entry, looked up): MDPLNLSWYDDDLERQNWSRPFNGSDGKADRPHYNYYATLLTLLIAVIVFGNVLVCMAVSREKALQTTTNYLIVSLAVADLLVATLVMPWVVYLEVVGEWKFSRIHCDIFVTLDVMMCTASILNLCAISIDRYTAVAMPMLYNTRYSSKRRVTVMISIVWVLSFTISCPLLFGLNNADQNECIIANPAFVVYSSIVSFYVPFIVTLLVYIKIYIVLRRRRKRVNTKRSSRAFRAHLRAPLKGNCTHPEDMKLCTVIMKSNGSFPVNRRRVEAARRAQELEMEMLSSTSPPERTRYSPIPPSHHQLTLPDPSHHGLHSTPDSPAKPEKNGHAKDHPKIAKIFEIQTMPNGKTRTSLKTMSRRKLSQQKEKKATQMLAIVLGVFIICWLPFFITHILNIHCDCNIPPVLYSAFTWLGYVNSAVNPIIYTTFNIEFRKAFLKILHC

This assay deals with D(2) dopamine receptor (Homo sapiens) (UniProt P14416). The experiment in a line: HTS Assay for Allosteric Antagonists of the Human D2 Dopamine Receptor: Primary Screen for Antagonists. Further: 0% is about no effect. To be noted: HEK293 TREx D2 cells, calcium flux, dopamine EC80; at 10 µM; stronger effect = higher value. Summed up:
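Measurement of antagonist activity uses fluorescent calcium dye in inducible HEK293 T-REx D2 cells: 10 s baseline, compound addition with 180 s read, EC80 dopamine addition with a further 180 s read.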
(In general: Calcium assays in cells follow changes in intracellular calcium, usually with a dye or a luminescent sensor.)
As for `Cc1ccc(S(=O)(=O)N2CCCc3cc(NC(=O)c4c(F)cccc4F)ccc32)cc1`, the inhibition – broadly, the change of the read-out against control, counted positive when it falls – is 8.44%.

Turning to `CCc1ccc(C2=C(C)C(N3CCC(C(=O)NCc4ccc(C)o4)CC3)=NS2(=O)=O)cc1`, the inhibition stood at 3.04%.

As to `CCCCNC(=O)[C@@H](c1ccccc1)N1Cc2ccccc2C1=O`, the inhibition was -5.32%.

Regarding `Cc1ccc(Cl)cc1-n1ncc2c(N3CCC(C(N)=O)CC3)ncnc21`, the inhibition is -9.29%.

Regarding `Cc1cccc(OCCCCn2c(C3CC(=O)N(c4ccc(C)cc4C)C3)nc3ccccc32)c1` (stereo unspecified), the inhibition is -8.48%.

Take `CNc1oc(/C=C/c2cc(OC)c(OC)c(OC)c2)nc1C#N`: the inhibition amounted to 3.89%.

`CCN1CCOC(=O)C1CC(=O)Nc1cc(Cl)ccc1OC` (stereo unspecified): the inhibition was determined as 9.76%.

As for `CCCCn1c(=O)c2oc3ccccc3c2n(CC(=O)Nc2ccccc2OC)c1=O`, the inhibition was -18.2%.

In the case of `COC(=O)COc1ccc2c(-c3cccc([N+](=O)[O-])c3)cc(=O)oc2c1`, the inhibition was active: 49.5%.

`O=C(N[C@@H](Cc1ccccc1)C(=O)OCc1ccccc1)c1nc[nH]c1C(=O)NC1CCNCC1`: the inhibition is active: 76.1%.

`CCOC(=O)c1c(NC(=O)/C=C/c2ccc(OCC)cc2)sc2c1CCC2`: the inhibition is -2.68%.

As to `Cc1ccc(CNC(=O)Cn2cc(C(=O)c3ccc(Cl)cc3)c(=O)c3ccc(C)nc32)cc1`, the inhibition came to 5.68%.

As for `Cc1ccccc1CNC(=O)c1ccc2c(c1)N(Cc1ccccc1)CCS2`, the inhibition is -1.78%.

Turning to `Cc1cccc(C)c1Nc1c(-c2ccccc2O)nc2ncccn12`, the inhibition came out at 6.16%.

Consider `O=C(CCCn1c(=O)c2cccn2c2cccnc21)Nc1ccccc1Br`, for which the inhibition stood at 4.39%.

With `O=c1oc2ccc3ccccc3c2cc1-c1nnc(Nc2cccc(F)c2)s1`, the inhibition turned out to be 7.09%.

`COc1cccc(CNC(=O)c2ccc(CS(=O)Cc3ccc(Cl)cc3)o2)c1` (stereo unspecified): the inhibition amounted to 3.08%.

On to `Cc1ccc(C(=O)CSc2nnc3ccc4ccccc4n23)cc1`, for which the inhibition was -8.89%.

In the case of `Cc1ccc(CNC(=O)C2CCN(c3ncnc4c3nc3n4CCCCC3)CC2)cc1`, the inhibition was -2.78%.

On to `Cc1ccc(NC(CNS(=O)(=O)c2ccc(Cl)cc2)c2ccccc2)cc1` (stereo unspecified), for which the inhibition is -6.07%.

With `CCOC(=O)C1CCCN(S(=O)(=O)c2cc(-c3cc(C)no3)ccc2C)C1` (stereo unspecified), the inhibition is 0.059%.

Regarding `Cc1cccc(N(C)c2nc3ccc(C)cc3n3nnnc23)c1`, the inhibition is -2.8%.

As for `CCC(=O)N1c2ccc(S(=O)(=O)N3CCN(c4ccccc4Cl)CC3)cc2CC1C` (stereo unspecified), the inhibition was found to be 17.7%.

As to `COc1ccc(-c2csc(C3=C(O)CN(Cc4ccc(Cl)cc4)C3=N)n2)cc1OC`, the inhibition is active: 73.5%.

As for `O=C(NC1CCCCC1)/C(=C/c1ccc(Cl)cc1)NC(=O)c1ccccc1`, the inhibition came out at 3.65%.

In the case of `COc1ccc(NS(=O)(=O)c2coc(C(N)=O)c2)cc1Cl`, the inhibition is active: 30.8%.

Regarding `CCN(CC)C(=O)c1ccccc1NC(=O)c1cccc(S(=O)(=O)N2CCC(C)CC2)c1`, the inhibition is -8.85%.

As for `CC(C)COP(=O)(OCC(C)C)C(O)c1ccccc1F` (stereo unspecified), the inhibition is active: 52.4%.

As for `CCOc1ccc(CCNC(=O)c2nn(-c3ccc(OC)cc3)c(=O)c3c2c2ccccc2n3C)cc1OCC`, the inhibition stood at 2.17%.

Turning to `S=C(NCC1CCCO1)Nc1ccc(Nc2ccccc2)cc1` (stereo unspecified), the inhibition is active: 40%.

Consider `O=C(Cc1ccc(F)cc1)NCCc1csc(-c2ccc(C(F)(F)F)cc2)n1`, for which the inhibition is -15%.

Regarding `Cc1ccc2[nH]c3c(=O)n(CC(=O)N(C)Cc4ccccc4)ncc3c2c1`, the inhibition is -5.15%.

With `Cn1c(CN2CCCCC2)nc2cc(NC(=O)c3ccc(Cl)cc3)ccc21`, the inhibition was active: 30.9% and -13.5%.

Take `CCCN(C(=O)Cn1nc(Cc2ccncc2)c2ccccc2c1=O)c1ccccc1C`: the inhibition was 0.593%.

Turning to `CCOc1ccc(-c2nnc(SCC(=O)NCCc3ccccc3)nc2-c2ccc(OCC)c(OC)c2)cc1OC`, the inhibition was -1.95%.

`COc1ccc(Br)cc1CNC(=O)c1ccc(-n2c(C)cc3c2CCC(C)C3)cc1` (stereo unspecified): the inhibition was determined as 8.44%.

For `COCCCn1c(=N)c(C(=O)NC2CCCC2)cc2c(=O)n3cc(C)ccc3nc21`, the inhibition is -15.3%.

Regarding `Cc1cccc(C(=O)Nc2nnc(S(=O)(=O)N3c4ccccc4CC3C)s2)c1` (stereo unspecified), the inhibition worked out at 15.9%.

Regarding `Cc1cc(O)c(CN2CCN(c3ccc(F)cc3)CC2)c2oc(=O)cc(C)c12`, the inhibition came out at 17.2%.

As to `CCOc1ccccc1C1Nc2ccccc2-c2nnc(SCc3ccccc3)nc2O1` (stereo unspecified), the inhibition is -17.1%.

As to `Cc1ccccc1CN1C(=O)C(O)(CC(=O)c2cccc(Br)c2)c2ccccc21` (stereo unspecified), the inhibition came out at 2.75%.

Turning to `COC(=O)c1[nH]c2cccc(OC)c2c1NC(=O)CCN1CCN(c2cccc(Cl)c2)CC1`, the inhibition was active: 38.3%.

As for `CCOc1ccc(OCC)c(NC(=O)c2c(C)nn(-c3ccccc3)c2-n2cccc2)c1`, the inhibition is 12.2%.

With `COc1ccc(CCCc2nnc(SCC(=O)Nc3ccc(Cl)cc3)o2)cc1`, the inhibition was -0.476%.

Regarding `Cc1nn(C)c2c1c(C(F)(F)F)cc(=O)n2CC(=O)NC(C)(C)C`, the inhibition is -13.8%.

Turning to `Cc1oc2ncnc(N3CCCCC3)c2c1C(=O)Nc1cccc(F)c1`, the inhibition turned out to be 3.89%.

With `CCc1ccccc1NC(=O)c1ccc2[nH]c(C)c(C)c2c1`, the inhibition was -8.26%.

For the molecule `CCc1ccc(CNC(=O)c2sc3ncnc(N(C)C4CCCCC4)c3c2C)cc1`, the inhibition was 8.85%.

For `COc1ccc(-c2cc(-c3ccc(F)cc3)nc3c2COc2ccccc2-3)cc1`, the inhibition is -9.05%.

Take `COC(=O)c1ccccc1NC(=O)CCCS(=O)(=O)c1nc(-c2ccccc2OC)cc(C(F)(F)F)n1`: the inhibition was -6.09%.

On to `CCOC(=O)CNC(=O)Cn1nc(N2CCN(c3ccccc3)CC2)ccc1=O`, for which the inhibition is -3.06%.

Regarding `CC(=O)c1cccc(NC(=O)c2cc(-c3ccc4c(c3)OCCO4)on2)c1`, the inhibition was -20.1%.

Consider `COCCn1c(CNC(=O)c2cc(OC)c(OC)c(OC)c2)nc2cccnc21`, for which the inhibition is -8.48%.

`CCN(c1cccc(C(F)(F)F)c1)S(=O)(=O)c1ccc2c(c1)CCN2C(C)=O`: the inhibition was active: 31%.

Turning to `CCN(CC)C(=O)C1CCCN(c2ncnc3c2nc2n3CCCCC2)C1` (stereo unspecified), the inhibition was determined as 0.575%.

With `COc1ccc(CCNC(=O)c2cc3c(=O)[nH]c4ccc(C)cc4c3s2)cc1OC`, the inhibition is 9.98%.

`CS(=O)(=O)N1CCC(N2CCN(Cc3ccc(F)cc3)C(=O)C2=O)CC1`: the inhibition came to 10.3%.

Consider `CSc1ccc(CCNC(=O)c2ccc3c(c2)c(C)c(C)n3Cc2ccc(F)cc2)cc1`, for which the inhibition was 9.7%.

As for `CCn1c(CN2CCN(C)CC2)nc2cc(NC(=O)c3cc(OC)c(OC)c(OC)c3)ccc21`, the inhibition was found to be 13.3%.

As for `Cc1cc(NC(=O)CSc2ncc(C(=O)Nc3ccccc3)c(=O)n2C)no1`, the inhibition was found to be 0.141%.

As to `COc1ccccc1CNC(=O)C(Cc1ccccc1)NS(=O)(=O)c1ccc2c(c1)CCN2C(C)=O` (stereo unspecified), the inhibition was -14.3%.

`Cc1ccccc1NC(=O)c1ccc(CNS(=O)(=O)c2ccc3c(c2)C(C)(C)C(=O)N3C)cc1`: the inhibition was -7.68%.

Consider `O=C(NCc1ccccn1)c1nn(-c2ccccc2Cl)nc1CO`, for which the inhibition came to 1.5%.

With `CSc1ncc(C(=O)Nc2cccc(Cl)c2C)c(-c2ccccc2)n1`, the inhibition is -1.61%.

Regarding `CCN(CC)C(=O)C1=C(C)Nc2nc3ccccc3n2C1c1ccc(Cl)cc1` (stereo unspecified), the inhibition stood at 18.2%.

Take `Cc1ccc(Cl)cc1N(C)C(=O)c1cc2ccc3cccnc3c2[nH]1`: the inhibition was 5.45%.

In the case of `CCNC(=O)CC1C(=O)N(c2ccc(F)cc2)C(=O)N1Cc1ccc(C)cc1` (stereo unspecified), the inhibition is -1.17%.

Consider `CCCCOc1ccc(C(=O)NCCc2csc3nc(-c4ccccc4F)nn23)cc1`, for which the inhibition turned out to be 20.9%.

Turning to `O=C(Nc1cccc(Br)c1)N1CCC(CN2CCCCCC2)CC1`, the inhibition is -4.35%.

As for `COc1cccc(CNC(=O)CN(c2ccc(C(C)C)cc2)S(=O)(=O)c2c(C)noc2C)c1`, the inhibition turned out to be 0.442%.

Consider `CCOC(=O)c1sc(NC(=O)c2cc3nc(-c4ccccc4)cc(C(F)(F)F)n3n2)c(C(=O)OCC)c1C`, for which the inhibition is -4.7%.

For `CCOC(=O)c1cc(-c2ccccc2)n(-c2cccc(C(=O)Nc3cc(OC)cc(OC)c3)c2)c1C`, the inhibition turned out to be 8.47%.

With `Cc1cc(C)cc(Oc2c(C(F)(F)F)oc3cc(OCC(=O)NC4CCCCC4)ccc3c2=O)c1`, the inhibition amounted to 3.18%.

For the molecule `CCOc1ccc(NC(=O)c2oc3ccccc3c2NC(=O)c2cc(C)cc(C)c2)cc1`, the inhibition is -3.04%.

Regarding `COc1ccc(CCNC(=O)Cn2ncc3c(=O)oc4ccccc4c32)c(OC)c1`, the inhibition was found to be 5.55%.

Consider `CCOc1ccc(NC(=O)c2cnc(Nc3ccccc3OC)c3ccccc23)cc1`, for which the inhibition was -0.722%.

On to `CCc1ccc2oc(-c3cc(NC(=O)c4cccnc4)cc(C)c3O)nc2c1`, for which the inhibition is -17.1%.

For the molecule `N#CC(C#N)=C1C=C2C=C(N3CCCCC3)CCC2CC1` (stereo unspecified), the inhibition was active: 86.8%.

With `Cc1cccc(Cc2c(C)nc3nc(SCC(=O)NCc4ccccc4)nn3c2C)c1`, the inhibition was -1.86%.

As to `CC(C)Oc1ccc(CNC(=O)c2cccc(NC(=O)N3CCSc4ncccc43)c2)cc1`, the inhibition is -1.7%.

For `CCC(=O)N1CCc2cc(Br)cc(S(=O)(=O)N3CCCC(C(=O)Nc4cccc(F)c4)C3)c21` (stereo unspecified), the inhibition came to 8.5%.

On to `CCOC(=O)CSc1nc2sc3c(c2c(=O)n1-c1ccccc1)CCC(C(C)(C)C)C3` (stereo unspecified), for which the inhibition was -8.74%.

As to `COc1ccc(NC(=O)c2cc(CN3CCCC3)on2)cc1Cl`, the inhibition was determined as 0.435%.

Take `Cc1ccccc1C(=O)Oc1c(Sc2ccccc2)c(C)nn1C(C)(C)C`: the inhibition is -3.52%.

For `Cc1ccc(C(=O)Nc2nnc(S(=O)(=O)N3CCc4ccccc43)s2)cc1`, the inhibition is 0.877%.

On to `Cc1cccc(C)c1N1CCN(CCn2c(=S)[nH]c3ccccc3c2=O)CC1`, for which the inhibition was active: 71.4%.

Take `O=C(Nc1cccnc1)c1cc(-c2cccc(Cl)c2)on1`: the inhibition is 26.1%.

For `O=C(NCc1ccc(F)cc1)c1cc(-c2ccc(Cl)cc2)n[nH]1`, the inhibition is -5.9%.

As to `CCc1ccc(S(=O)(=O)c2nnn3c2nc(Nc2ccc(F)cc2)c2cc(Cl)ccc23)cc1`, the inhibition worked out at 1.73%.

In the case of `CCC(C)NC(=O)CCSc1nc(-c2ccc(OC)cc2)cc(C(F)(F)F)n1` (stereo unspecified), the inhibition is 2.12%.

`O=C(O)c1cccc(Nc2ncnc3scc(-c4ccccc4)c23)c1`: the inhibition turned out to be 19.2%.

For the molecule `COc1cccc(-n2c(-c3cccc(F)c3)nc3c(cnn3-c3ccc(C)cc3)c2=O)c1`, the inhibition was 5.82%.

Consider `CCc1cnc2c(c1SCC(=O)c1ccc(OC)cc1)c(=O)n(C)c(=O)n2C`, for which the inhibition was -1.51%.

For `Cc1cc(C(=O)CSc2nnc(N)s2)c(C)n1CCc1ccc(F)cc1`, the inhibition is active: 42.6%.

With `COc1ccccc1CNC(=O)CC(c1ccc(OC)c(OC)c1)N1Cc2ccccc2C1=O` (stereo unspecified), the inhibition was determined as 2.99%.

On to `COc1ccc(OC)c(/C=C/C(=O)Nc2ccc(C(=O)OCCC(C)C)cc2)c1`, for which the inhibition is 14%.
